# Assay results: PubChem BioAssay AID488969 (Vanderbilt High Throughput Screening Facility, 2010)
# In all, about 110,000 compounds were measured (“z-score”: median about -0.1, highest 2% from about 2 on). This is one part of the list.
# Target: Metabotropic glutamate receptor 8 (Rattus norvegicus) (UniProt P70579)
# Experiment: rat mGluR8 modulators via GIRK flux, primary screen, cell-based, thallium flux, HTS (AID 488969)
# Conditions: HEK293 rat mGluR8, GIRK (G protein-gated inwardly rectifying potassium channel) thallium flux, FluoZin2; at 10 µM; stronger effect = higher value; submaximal glutamate (EC20) added with thallium
# UniProt P70579, sequence (P70579 whole entry, looked up): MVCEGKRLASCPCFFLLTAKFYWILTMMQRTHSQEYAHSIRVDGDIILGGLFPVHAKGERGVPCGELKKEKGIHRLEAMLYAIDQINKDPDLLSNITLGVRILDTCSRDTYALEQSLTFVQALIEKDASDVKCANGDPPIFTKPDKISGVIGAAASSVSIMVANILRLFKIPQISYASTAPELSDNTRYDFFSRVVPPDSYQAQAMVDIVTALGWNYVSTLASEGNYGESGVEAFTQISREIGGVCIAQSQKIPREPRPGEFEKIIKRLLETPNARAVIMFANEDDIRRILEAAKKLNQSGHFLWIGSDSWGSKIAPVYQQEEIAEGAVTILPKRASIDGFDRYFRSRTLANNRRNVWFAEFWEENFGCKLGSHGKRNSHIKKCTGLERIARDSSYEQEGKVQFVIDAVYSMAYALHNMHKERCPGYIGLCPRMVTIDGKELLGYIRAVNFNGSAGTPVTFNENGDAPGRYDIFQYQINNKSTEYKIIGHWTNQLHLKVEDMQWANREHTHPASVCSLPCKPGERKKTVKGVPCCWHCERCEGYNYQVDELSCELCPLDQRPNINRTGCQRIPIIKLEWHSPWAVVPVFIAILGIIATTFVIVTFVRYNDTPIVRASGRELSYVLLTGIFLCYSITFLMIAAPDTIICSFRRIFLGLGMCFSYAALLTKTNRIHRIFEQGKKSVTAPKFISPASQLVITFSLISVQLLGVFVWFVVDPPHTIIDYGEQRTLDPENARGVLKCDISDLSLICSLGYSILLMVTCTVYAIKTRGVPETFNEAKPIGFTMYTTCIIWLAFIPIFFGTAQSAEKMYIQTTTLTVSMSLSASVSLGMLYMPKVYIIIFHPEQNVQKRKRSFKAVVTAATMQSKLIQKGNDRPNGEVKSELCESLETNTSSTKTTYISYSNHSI
row,Compound,z-score
1,Fc1ccc(C(c2nnnn2Cc2ccco2)N2CCN(C3CCCCC3)CC2)cc1 (stereo unspecified),2.31
2,Cc1c(N=C2C(=O)Nc3ccccc32)c(=O)n(-c2ccccc2)n1C,-0.127
3,COc1cc2c(cc1OC)C1=NC(=O)CN1C(SCc1ccccc1C)=N2,-0.18
4,Cc1cc(C)nc(N2CCCC(C(=O)NC(C)CCc3ccco3)C2)n1 (stereo unspecified),0.506
5,CC1(C)CC(=O)C(N=Nc2ccc3ncsc3c2)=C(O)C1,0.532
6,CS(=O)(=O)N(CC(N)=O)c1ccc(F)c(Cl)c1,-0.383
7,Cc1ccc(C(=O)NCc2ccco2)cc1[N+](=O)[O-],-0.196
8,O=C(NN=C1CCCC1)c1ccn[nH]1,0.272
9,CCOc1ccc2[nH]cc(C(=O)N3CCN(C4CCCCC4)CC3)c(=O)c2c1,-0.123
10,O=C(O)c1sc2cc(C(F)(F)F)cnc2c1-c1ccccc1,-0.272
11,COCCn1c(-c2ccc(OC)cc2)nc2ccccc21,1.01
12,Clc1nc(Cl)nc(N(c2ccccc2)c2ccccc2)n1,-0.0382
13,CC(=O)c1c(C)nc(-c2ccccc2)n1O,0.16
14,CC(=O)C1=C(C)NC(SCC(=O)c2ccc(-c3ccccc3)cc2)=C(C#N)C1c1cccnc1 (stereo unspecified),-0.244
15,CCCc1cc2c(OC(=O)CC)c(-c3ccc(C(=O)OCC)o3)c(=O)oc2cc1OC,0.457
16,COc1ccccc1C1N(c2cc(Cl)ccc2OC)C(=O)C2CCCN21 (stereo unspecified),-0.16
17,CC(C)(C)NS(=O)(=O)c1ccc(Oc2ncc(C(F)(F)F)cc2Cl)cc1,0.0117
18,CCCCOc1ccc(C(=O)N/N=C/c2cn[nH]c2-c2ccc(OC)c(OC)c2)cc1,0.155
19,COc1cccc(C(=O)N/N=c2\oc3c(OC)cccc3cc2C(=O)NCc2ccccc2)c1,-0.203

row,Compound,z-score
1,COc1cc([N+](=O)[O-])ccc1NC(=S)Nc1cccc(C(=O)O)c1,0.18
2,Cc1cc(C)cc(NC(=S)N2CCC(c3nc4ccccc4s3)CC2)c1,-0.207
3,Cc1cccc(NC(=S)N(CCN(C)C)C(C)c2ccco2)c1 (stereo unspecified),-0.449
4,COc1ccc2ncc(S(=O)(=O)c3ccccc3)c(N3CCN(c4ccccc4)CC3)c2c1,-0.216
5,COc1cccc(-c2cc(C(=O)N3CCc4ccccc4C3)no2)c1,0.252
6,Cc1ccc(NC(=O)CN2CCC(NC(=O)Cc3ccccc3)CC2)cc1C,-0.117
7,O=C1c2ccccc2C(=O)N1CCc1nc(-c2ccc(Cl)cc2)no1,-0.122
8,O=C(CCC1CCCC1)N1CCN(S(=O)(=O)Cc2ccccc2)CC1,-0.116
9,CN1CCN(c2ccc(Cl)cc2NC(=O)c2cccc(S(=O)(=O)N(C)C)c2)CC1,0.0431
10,Cc1nc2ccc(S(=O)(=O)NC(C(=O)N3CCn4c3nc3ccccc34)C(C)C)cc2s1 (stereo unspecified),-0.155
11,CCOC(=O)C1=C(C)N(c2ccc(C)c(C)c2)C(=O)/C1=C\c1ccco1,0.215
12,COc1cc([N+](=O)[O-])ccc1NC(=O)CC1SC(=Nc2ccc(F)cc2)N(CCC2=CCCCC2)C1=O (stereo unspecified),0.661
13,Cc1ccc(CSc2ncnc3c2cnn3-c2ccc(C)cc2)cc1,1.75
14,CSc1nc2cc(F)c(F)cc2n1C,-0.321
15,COc1cc(OC)cc(-n2nnnc2SCC(=O)Nc2ccc(C(C)=O)cc2)c1,-0.0985
16,C#CC(CO)N(CCN(Cc1ccccc1)C(C#C)CO)Cc1ccccc1 (stereo unspecified),2.19
17,COC(=O)c1ccccc1OCCOCCOc1cccc2cccnc12,-0.257
18,C/C(CCc1ccc2c(c1)OCO2)=N\N=C1\NC(=O)CC(C(=O)Nc2ccccc2)S1 (stereo unspecified),-0.242
19,Cc1ccc(OCC2Cn3c(nc4c3c(=O)[nH]c(=O)n4C)O2)cc1 (stereo unspecified),-0.258

row,Compound,z-score
1,CCOC(=O)c1c(NC(=O)COC(=O)Cn2c(C)nc3ccccc32)sc2c1CCCC2,-0.431
2,CC(=O)N(c1ccccc1)c1nc(C)cc(C)c1C#N,-0.111
3,CCCN(CCC)c1nc(N)c(C#N)c(CC#N)c1C#N,-0.93
4,Cn1c(=O)[nH]c(=O)c2c1nc(Sc1ccccc1)n2CCc1ccccc1,-0.134
5,COc1ccc(/C=C2\SC(N3CCc4ccccc4C3)=NC2=O)cc1,-0.34
6,COc1ccccc1C(=O)Nc1ccc2c3c(cccc13)CC2,-0.287
7,C/C(Nc1ccc(C)cc1)=C(/C#N)C(N)=O,0.0432
8,CC(CCc1ccco1)NC(=O)Cn1nc(Cc2ccncc2)c2ccccc2c1=O (stereo unspecified),0.41
9,Cc1ccc(-c2nnn(CCC(=O)Nc3ccc4c(c3)OCO4)n2)cc1,-0.244
10,COc1ccc(S(=O)(=O)N2CCN(Cc3ccc(Cl)cc3)CC2)cc1,-0.871
11,CCCn1c(SCC(=O)c2cc(OC)ccc2OC)nc2c1c(=O)n(C)c(=O)n2C,0.355
12,COC(=O)c1ccccc1S(=O)(=O)N(CCCN1CCOCC1)Cc1cccs1,-0.193
13,CCOC(=O)c1cnc2c(C)cccc2c1NCc1ccco1,-0.68
14,Cc1cc(Cl)ccc1OCC(=O)Nc1ccccc1N1CCOCC1,2.81
15,COc1ccc(OC)c(C2=NOC(C(=O)N3CCN(c4ccccc4)CC3)C2)c1 (stereo unspecified),-0.631
16,CCOC(=O)CSc1nc2sc(C)c(C)c2c(=O)n1N,-0.265
17,CC1=CN2CC(O)CN=C2C=C1 (stereo unspecified),-0.0845
18,O=C(O)C1CCC(CNCc2cccnc2)CC1 (stereo unspecified),-0.332
